Data: PubChem BioAssay AID1671193 (National Center for Advancing Translational Sciences (NCATS), 2021)
Screen size: about 150,000 compounds; about 180 (0.12%) were called active. Inconclusive results, whose numbers are uncertain, are shown with a selection of clear calls. The call rests on the fitted dose curve; in most records, active means well fitted cell-killing curve with a large enough effect; inconclusive means small, poorly fitted or top-dose-only effect, or effect the other way; inactive means flat fitted curve, though single readings scatter. Potencies of inconclusive entries are doubtful fits and often do not repeat.

assay: GF-AFC viability counterscreen for inhibitors of alpha-synuclein gene (SNCA) expression; settings: HEK-293-SNCA-luc viability, GF-AFC fluorescence, 24 h; activity change, negative = cytotoxicity: at 57.1 µM (top of the series) unless noted; further: nearly all actives have a fitted effect of over 30% in size;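 on activity change, negative = cytotoxicity: 0% = DMSO-treated cells and -100% = medium-only wells without cells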
Outline: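 HEK-293-SNCA-luc cells (1500/well) plated 24 h, then exposed 24 h to a dilution series; GF-AFC added 30 min at 37C, fluorescence 405/540 nm; normalised to medium-only and DMSO wells, Hill fit.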
Potency means the concentration at half of the fitted maximal effect; tags describe the fitted curve by direction and shape.

Row | SMILES | Potency | activity change, negative = cytotoxicity
1 | Cc1nc2c(OCC(=O)c3ccccc3)cccn2c(=O)c1-c1cc(C)n(-c2ccccc2)n1 | inactive | 
2 | O=C(NCCc1cccs1)C1CCN(C(=O)c2ncn3c2COC(c2ccc(F)cc2)C3)CC1 (centres undefined) | inactive | 
3 | CN1Cc2cccn2CC1CNC(=O)c1cccn1C (centres undefined) | inactive | 
4 | CCC(=O)N1CCN(c2nc3c(s2)CC(C(=O)Nc2ccc(F)cc2F)CC3)CC1 (centres undefined) | inconclusive: 14.1 µM [cytotoxic, partial curve, poor fit] | 
5 | CCCNC(=O)N1CCC2(CCC2NC(=O)COC)CC1 (centres undefined) | inactive | 
6 | CC(C)(C)Nc1nc2cc(Cl)c(Cl)cc2nc1S(C)(=O)=O | active: 15 µM | 
7 | COc1ccccc1CNC(=O)C(=O)NCC(c1cccs1)S(=O)(=O)c1cccs1 (centres undefined) | inconclusive: 39.8 µM [cytotoxic, single point] | 
8 | Fc1ccc(-c2cnc([C@@H]3COCCN3Cc3cnc4ccccc4c3)[nH]2)cc1 | inconclusive: 56.2 µM [cytotoxic, single point] | 
9 | CCCCN(C)C(=O)CSc1nc2ccccc2nc1Cc1ccc(C)cc1 | inconclusive: 25.1 µM [cytotoxic, partial curve] | 
10 | Cc1ccc2[nH]c(=O)c3cc(C(=O)NC4CCC(C)CC4)sc3c2c1 (centres undefined) | inconclusive: 39.8 µM [rising, single point] | 
11 | CN(CCc1ccccc1)C(=O)c1cc(-c2ccc[nH]2)n[nH]1 | inconclusive: 7.08 µM [cytotoxic, partial curve] | 
12 | COc1cccc(Nc2ncc3nc(-c4ccc(F)cc4)c(=O)n(C[C@H]4CCCO4)c3n2)c1 | inconclusive: 15.8 µM [rising, partial curve, poor fit] | 
13 | CCNc1ncc2nc(-c3ccc(Cl)cc3)c(=O)n(C)c2n1 | inconclusive: 5.62 µM [rising, partial curve, poor fit] | 
14 | CCOCCCn1c(SCC(=O)Nc2ccccc2Cl)nc2c(oc3ccccc32)c1=O | inconclusive: 1 µM [cytotoxic, partial curve, poor fit] | 
15 | COc1ccc(S(=O)(=O)N2CCC(C(=O)Nc3cc(C(F)(F)F)ccc3Cl)CC2)cc1 | inconclusive: 25.1 µM [cytotoxic, single point] | 
16 | Cc1ccc(C2c3c(oc4ccccc4c3=O)C(=O)N2c2nnc(C)s2)cc1 (centres undefined) | inactive | 
17 | O=C([C@@H]1CCCN1c1nccc(Nc2ccccc2Cl)n1)N1CCOCC1 | inconclusive: 3.55 µM [cytotoxic, single point] | 
18 | Fc1ccc(CN2CCC(Oc3ccccc3-c3nc(-c4cnccn4)no3)C2)cc1F (centres undefined) | inconclusive: 20 µM [cytotoxic, single point] | 
19 | CCOc1cc(-c2ccc(OC(=O)c3ccccc3)c(OC)c2)cc(=O)c2c(C)oc(C)c12 | inconclusive: 39.8 µM [cytotoxic, single point] | 
20 | CN=C(N)NCCCCC/C=C(/C)CC(C)C1OC(=O)C(C)C(O)/C=C/C(C)C(O)CC(O)C(C)C(O)CCC(C)C(O)CC2(O)OC(CC(OC(=O)CC(=O)O)CC(O)CC(O)C(C)C(O)/C(C)=C/CCC1C)CC(O)C2O (centres undefined) | inconclusive: 5.05 µM [cytotoxic, partial curve, poor fit] | 
21 | Cc1ccccc1OCCCCn1c(CCNC(=O)C(C)(C)C)nc2ccccc21 | inconclusive: 39.8 µM [cytotoxic, single point] | 
22 | O=C1O[C@@H]2CN(S(=O)(=O)N3CCCC3)C[C@@H]2N1CCCc1ccc(F)cc1 | inconclusive: 22.4 µM [cytotoxic, partial curve, poor fit] | 

Row | SMILES | Potency | activity change, negative = cytotoxicity
23 | Cc1ccc(CNC(=O)c2ccc3c(c2)CN(Cc2cccc(F)c2F)CCO3)cc1 | inactive | 
24 | COc1ccc(C(=O)N2CCC3(CC2)C(=NC2CCCCC2)NC(=O)N3c2cccc(OC)c2)cc1 | inactive | 
25 | O=C(c1cccs1)N1CCn2c(nnc2[C@@H]2C[C@@H](O)CN2Cc2ccccc2)C1 |  | inactive: 5.8% [at 12.5 µM]
26 | COCCn1c(=O)c(-c2ccc(Cl)cc2)nc2cnc(N3CCOCC3)nc21 | inconclusive: 2.51 µM [rising, partial curve, poor fit] | 
27 | CN1c2cc(C(=O)Nc3ccc(C(N)=O)cc3)ccc2C(=O)N2CCCCCC21 (centres undefined) |  | inactive: 18.4% [at 12.5 µM]
28 | CN(C)CCNC(=O)C(C)(C)Oc1nn(Cc2cccc(Cl)c2)c2ccccc12 | inconclusive: 28.2 µM [cytotoxic, partial curve, poor fit] | 
29 | Cc1ccc(S(=O)(=O)NCc2nc3nc(C)cc(C)n3n2)cc1 |  | inconclusive: 37.1%
30 | CS(=O)(=O)Nc1ccc([N+](=O)[O-])cc1Oc1ccccc1 | inconclusive: 24.1 µM [cytotoxic, partial curve, poor fit] | 
31 | COc1ccccc1-c1cccc(CN2CCCC(C(=O)NCc3cccnc3)C2)c1 (centres undefined) | inactive | 
32 | CNc1ccnc(N2CCC(N3CCCC(C(=O)N4CCCC4)C3)CC2)n1 (centres undefined) | inactive | 
33 | O=C1NC(=NC2CCCCC2)C2(CCCN(CC3CCCCC3)C2)N1c1cc(F)cc(F)c1 (centres undefined) | inactive | 
34 | O=C(Nc1ccc(Br)c(F)c1)c1cnc(-c2ccccc2)nc1-c1ccncc1 | inconclusive: 39.8 µM [cytotoxic, single point] | 
35 | CCCS(=O)(=O)c1ncc(Cl)c(C(=O)Nc2c(C(=O)Nc3ccccc3)oc3ccccc23)n1 | inconclusive: 31.6 µM [cytotoxic, partial curve, poor fit] | 
36 | C=CC(=O)Nc1cccc(Nc2nc(Nc3ccc(NC4CN(CCF)C4)cc3OC)ncc2C(F)(F)F)c1 | active: 4.74 µM | 
37 | Cc1ccc(CN2CCc3ncc(C(=O)NCc4ccccc4)n3CC2)o1 | inconclusive: 5.62 µM [cytotoxic, full curve, poor fit] | 
38 | O=C1c2cc(N3CCOCC3)nc(-c3ccccc3F)c2CN1CC1CC1 | inactive | 
39 | O=C(Cc1ccc(F)cc1)N1CCC(C(=O)N2CCCC2c2nc3ccncc3[nH]2)CC1 (centres undefined) | inactive | 
40 | O=C(Cc1ccccn1)NC1CCN(Cc2cccc(-c3cccs3)c2)CC1 | inconclusive: 25.1 µM [cytotoxic, single point] | 
41 | CC1=C(C(=O)Nc2ccccc2)C(c2ccc[nH]2)n2ncnc2N1 (centres undefined) | inconclusive: 39.8 µM [cytotoxic, single point] | 
42 | COc1ccc(OC)c(S(=O)(=O)N[C@H]2CO[C@H]3[C@@H]2OC[C@H]3OC(=O)Nc2cccc(C(F)(F)F)c2)c1 | inconclusive: 31.6 µM [cytotoxic, single point] | 
43 | COc1ccccc1-c1cccc(C(=O)N2CCN(C(=O)Cc3cccc(Cl)c3)CC2)c1 |  | inactive: 8.03% [at 12.5 µM]
44 | COCCCn1c(=O)c2sccc2n2c(CCCC(=O)Nc3cccc(C(F)(F)F)c3)nnc12 | inconclusive: 1.26 µM [cytotoxic, full curve] | 

Row | SMILES | Potency | activity change, negative = cytotoxicity
45 | O=C(Nc1ccccc1Cl)N1CCCC2(C1)Nc1cccnc1NC2=NC1CCCC1 (centres undefined) | inconclusive: 22.4 µM [cytotoxic, partial curve, poor fit] | 
46 | COc1cccc(NC(=O)N(Cc2cn(C)c3ccccc23)C2CCCCCC2)c1 | inconclusive: 14.1 µM [cytotoxic, partial curve, poor fit] | 
47 | CCCS(=O)(=O)N1CCc2nnc(C3CC3)n2CC1 | inactive | 
48 | CNC(=O)[C@@H]1CN(C(=O)c2nccc3ccccc23)C[C@H]1COC | inconclusive: 1 µM [cytotoxic, full curve, poor fit] | 
49 | Cc1c(Cl)cccc1-n1nc(C)c2c(C)cc(=O)n(CC(=O)N3CCCc4ccccc43)c21 | inconclusive: 25.1 µM [cytotoxic, single point] | 
50 | Cc1nnc(SCC(=O)Nc2ccc(N(C)C)cc2)[nH]c1=O | inconclusive: 7.08 µM [cytotoxic, single point] | 
51 | Cc1cccc(OCC(=O)N2CCC(c3n[nH]c(=O)n3-c3ccccc3)CC2)c1 | inactive | 
52 | Cc1ccccc1N1CC(c2nc3ccccc3n2Cc2ccc(Br)cc2)CC1=O (centres undefined) | inconclusive: 22.4 µM [cytotoxic, partial curve, poor fit] | 
53 | COc1ccc(-c2[nH]ncc2CN2CCCCCNC(=O)CC2c2ccccc2)cc1 (centres undefined) |  | inconclusive: -29.5%
54 | O=C(c1ccc(Cn2ccnc2)o1)N1CCCCCC1c1nnc(-c2ccccc2)o1 (centres undefined) | inconclusive: 31.6 µM [cytotoxic, single point] | 
55 | COCCN[C@H]1C[C@@H]2c3[nH]c4ccccc4c3C[C@@H](C(=O)OC)N2[C@H](c2ccccc2)C1 | inconclusive: 44.7 µM [cytotoxic, single point] | 
56 | COC1C(=O)CCC2(CO2)C1(O)C1(C)OC1CC=C(C)C (centres undefined) | inconclusive: 0.532 µM [rising, full curve, poor fit] | 
57 | Nc1ncnc2nc(-c3ccc(N4CCOCC4)nc3)cc(-c3cccc(Br)c3)c12 | inconclusive: 17.8 µM [rising, single point] | 
58 | NCC1CCCN(Cc2ccc(-c3nc(-c4cccnc4)cc(=O)[nH]3)cc2)C1 (centres undefined) | inconclusive: 31.6 µM [cytotoxic, partial curve, poor fit] | 
59 | O=C(NCc1ccc(F)cc1)c1nc(-c2ccccc2)c2ccccn12 |  | inconclusive: -31.8%
60 | COCCOCC(=O)NCC12CCCC=C1NC(=O)CC2 (centres undefined) | inactive | 
61 | O=C(OCc1ccccc1)N1CCOCC12CCN(Cc1nccs1)CC2 | inactive | 
62 | CCc1cc(C(=O)N2CCCC(c3nnc(Cn4ccnc4)n3C)C2)ccn1 (centres undefined) | inconclusive: 1.78 µM [rising, full curve, poor fit] | 
63 | O=C(NCc1ccccc1)c1ccc2c(c1)N(Cc1ccccc1)C(=O)c1ccccc1S2(=O)=O | inactive | 
64 | CSc1cccc(NC(=O)C2CCN(c3cnc4nccnc4c3)CC2)c1 | inconclusive: 11.2 µM [cytotoxic, partial curve, poor fit] | 
